In PubChem BioAssay AID1468 (National Center for Advancing Translational Sciences (NCATS), 2008):
Out of some 280,000 compounds screened, about 1,100 (0.39%) were called active. The inconclusive results got no clear call from the source; some entries with a clear call stand among them for comparison. The call rests on the fitted dose curve; in most records, active means well fitted inhibition curve with a large enough effect; inconclusive means small, poorly fitted or top-dose-only effect, or effect the other way; inactive means flat fitted curve, though single readings scatter. Potencies of inconclusive entries are left out as doubtful fits.
Further: nearly all actives have a fitted effect of over 55% in size.
Potency means the concentration at half of the fitted maximal effect; tags describe the fitted curve by direction and shape.

The compounds below were run against Microtubule-associated protein tau (Homo sapiens) (UniProt P10636) (assay: qHTS for Inhibitors of Tau Fibril Formation, Fluorescence Polarization). Conditions: K18 P301L tau heparin fibrillization, Alexa594 FP, 6 h; series mostly up to 57.7 µM.
Chain of UniProt P10636 (P10636 whole entry, looked up): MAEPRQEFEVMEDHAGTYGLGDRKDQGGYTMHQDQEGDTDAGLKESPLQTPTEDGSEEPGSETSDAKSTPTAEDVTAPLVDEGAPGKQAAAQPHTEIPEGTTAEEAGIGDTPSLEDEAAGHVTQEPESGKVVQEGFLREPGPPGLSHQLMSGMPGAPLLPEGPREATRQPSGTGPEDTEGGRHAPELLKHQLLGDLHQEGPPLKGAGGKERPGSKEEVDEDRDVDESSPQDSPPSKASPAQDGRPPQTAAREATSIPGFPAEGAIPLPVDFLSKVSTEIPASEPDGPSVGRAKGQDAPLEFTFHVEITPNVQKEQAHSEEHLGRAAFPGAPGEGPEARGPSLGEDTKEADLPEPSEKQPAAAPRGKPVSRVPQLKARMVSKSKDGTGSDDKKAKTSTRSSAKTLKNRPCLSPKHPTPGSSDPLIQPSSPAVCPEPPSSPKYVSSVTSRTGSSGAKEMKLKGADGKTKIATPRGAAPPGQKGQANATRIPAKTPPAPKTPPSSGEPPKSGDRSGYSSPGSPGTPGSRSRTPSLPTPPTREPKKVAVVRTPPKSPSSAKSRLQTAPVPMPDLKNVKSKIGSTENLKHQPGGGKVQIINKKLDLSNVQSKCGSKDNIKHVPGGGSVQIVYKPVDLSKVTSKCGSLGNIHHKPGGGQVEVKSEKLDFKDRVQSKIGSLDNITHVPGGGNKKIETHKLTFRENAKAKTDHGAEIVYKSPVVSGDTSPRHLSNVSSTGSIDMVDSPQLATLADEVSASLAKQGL
Procedure, shortened: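 K18 P301L tau (15 uM unlabeled/0.24 uM Alexa 594-labeled, final) + compound + heparin 20 uM final; 100 mM NaOAc pH 7; 6 hr 37 C; ThT 30 uM final added, 1 hr RT; FP ex 555/em 632 nm.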
In the case of `Cc1[nH]c2ccccc2c1/C=N/Nc1nc(N2CCCCC2)nc(N2CCCCC2)n1`, the Potency is reported as inconclusive [activator, partial curve].
`O=C(Nc1cccc(Cl)c1)Nc1ccccc1OCc1cc(=O)n2ccccc2n1` was tested, and the Potency was inconclusive [inhibitor, full curve, poor fit].
With `Cc1cc(C)c2oc(-c3cccc(NC(=O)c4ccco4)c3)nc2c1` the Potency was inconclusive [inhibitor, full curve].
`O=C(Oc1c(CN2CCOCC2)cc(Cl)c2cccnc12)c1ccccc1` was tested, and the Potency was inconclusive [inhibitor, partial curve, poor fit].
For `Cc1c(Cc2ccc3c(c2)OCO3)sc(NC(=O)C2CC2)c1C(N)=O`, the Potency was inconclusive [inhibitor, partial curve].
`CC1(c2ccccc2)NC(=O)N(CCOc2ccccc2)C1=O` (centres undefined) was tested, and the Potency was “inactive”.
`O=C(CCn1cnc2ccccc2c1=O)NCc1ccccc1` was tested, and the Potency was “inactive”.
For `Cc1ccc(-c2csc(N)n2)s1`, the Potency was inconclusive [inhibitor, single point].
For `O=C(NNC1=C(C(=O)C(F)(F)F)CCC1)c1cccnc1`, the Potency was “inactive”.
For `CC(=O)C1=C(c2ccc(Cl)c(Cl)c2)N(C(C)=O)n2c(C)nnc2S1`, the Potency was inconclusive [inhibitor, partial curve].
With `S=C(NCc1ccccc1)NCc1ccc(CNC(=S)NCc2ccccc2)cc1` the Potency was inconclusive [inhibitor, partial curve].
`CNc1ccc(Br)cc(C(=O)/C=C/c2cc(OC)ccc2OC)c1=O` was tested, and the Potency was inconclusive [inhibitor, partial curve].
For `COC(=O)C1=C(C(=O)OC)[C@@H]2N(Cc3ccccc3)c3ccccc3[C@@]23C[C@@H](C(=O)OC)N(S(=O)(=O)c2ccc([N+](=O)[O-])cc2)C3=N1`, the Potency was inconclusive [activator, full curve].
In the case of `COc1ccc(C(=O)c2oc3ccccc3c2NC(=O)c2ccc(F)cc2)cc1`, the Potency is reported as inconclusive [inhibitor, partial curve, poor fit].
`O=C(c1cn(CCOc2ccccc2F)c2ccccc12)C1CCCCC1` was tested, and the Potency was inconclusive [inhibitor, partial curve, poor fit].
For `CCOc1ccc(NC(=S)N(CCc2c(C)[nH]c3ccccc23)Cc2ccco2)cc1`, the Potency was inconclusive [activator, partial curve].
In the case of `O=C(Nc1cccc(Cl)c1)c1cc(S(=O)(=O)NCCc2ccc(Cl)cc2)ccc1F`, the Potency is reported as inconclusive [inhibitor, full curve].
`CCOC(=O)c1ccc(NC(=O)c2cn(-c3ccccc3)nc2-c2ccc(Br)cc2)cc1` was tested, and the Potency was active: 17.8 µM.
`COC(=O)c1cn(N(C)c2ncc(C(F)(F)F)cc2Cl)c(=O)c2ccccc12` was tested, and the Potency was inconclusive [inhibitor, single point].
With `CCc1cccc(C)c1NC(=O)CSc1nc(-c2ccccc2F)nc2nc[nH]c12` the Potency was inconclusive [inhibitor, single point].
With `COc1ccccc1-n1c([S-])c(C(=O)Nc2ccccc2C(F)(F)F)[n+]2ccc(C(=O)NCCO)cc12` the Potency was inconclusive [inhibitor, single point].
In the case of `Cc1cc(C(F)(F)F)nc(SCC(=O)NC2=NC(=O)C(C)S2)n1` (centres undefined), the Potency is reported as inconclusive [inhibitor, partial curve].
For `CCC(=O)N1CCc2cc(S(=O)(=O)CCC(=O)Nc3ccc(Cl)c(C(F)(F)F)c3)ccc21`, the Potency was inconclusive [inhibitor, single point].
In the case of `CCOC(=O)c1c(C)[nH]c(C)c1C(=O)CSc1nc2ccccc2c(=O)n1-c1ccccc1C`, the Potency is reported as inconclusive [inhibitor, single point].
With `CCOC(=O)c1ccc(NC(=O)CSc2ccc(-c3sc(C)nc3C)nn2)cc1` the Potency was inconclusive [inhibitor, single point].
`COc1ccc(/C=C/C(=O)Nc2nnc(C(C)C)s2)cc1OC` was tested, and the Potency was “inactive”.
With `COc1cccc(Cn2c(=O)n(-c3ccc(C)c(F)c3)c(=O)c3sc4ccccc4c32)c1` the Potency was inconclusive [inhibitor, single point].
`O=C(COC(=O)C(Cc1c[nH]c2ccccc12)NC(=O)c1ccc(Br)cc1)c1ccc(Cl)cc1` (centres undefined) was tested, and the Potency was inconclusive [inhibitor, single point].
For `O=C(Nc1nc(-c2ccc(S(=O)(=O)N3CCCC3)cc2)cs1)c1ccco1`, the Potency was inconclusive [inhibitor, single point].
In the case of `O=[N+]([O-])c1ncn(Cc2c(Cl)cccc2Cl)n1`, the Potency is reported as “inactive”.
In the case of `S=C(c1ccc(-c2ccccc2Cl)o1)N1CCCCC1`, the Potency is reported as inconclusive [inhibitor, single point].
In the case of `COc1cc2c(cc1Cl)C(=O)C(F)(c1ccccc1)C(=O)N2` (centres undefined), the Potency is reported as inconclusive [inhibitor, partial curve, poor fit].
`COC(=O)CCC(=O)OC1(C)C(=O)C=C2C=C(C3CC3)N(Cc3ccc4c(c3)OCO4)C=C2C1=O` (centres undefined) was tested, and the Potency was “inactive”.
`CC(C)CC(=O)NCc1nc2cccnc2n1Cc1ccccc1` was tested, and the Potency was “inactive”.
For `NC(=O)c1ccc(N2CCN(c3ccccc3F)CC2)c([N+](=O)[O-])c1`, the Potency was inconclusive [inhibitor, single point].
With `COC(=O)c1cc(Br)c(=O)n(CCN(C(C)C)C(C)C)c1` the Potency was inconclusive [inhibitor, single point].
For `CCOC(=O)c1nc(Nc2ccc(C(=O)OCC(C)C)cc2)c2ccccc2n1`, the Potency was inconclusive [inhibitor, partial curve].
For `COc1ccc(OC)c2sc(NC(=O)CCSc3ccccc3)nc12`, the Potency was inconclusive [inhibitor, full curve, poor fit].
With `CC(=O)N(C(C)=O)c1nc(-c2ccccc2)cn1/N=C/c1cccc([N+](=O)[O-])c1` the Potency was inconclusive [inhibitor, partial curve].
